{
  "source": "paper PMC4336329",
  "about": "(PLoS ONE, 2015)",
  "note": "The whole screen tested about 310,000 compounds, of which about 14,000 (4.5%) showed an effect of 50% or more. Effects have a minus sign here. Some of the results follow.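 Further: peak tail current of the secondary pulse compared with the same well before compound.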",
  "data": [
    {"target": "human ether-à-go-go-related gene (hERG) potassium channel (human, UniProt Q12809)", "sequence (Q12809 whole entry, looked up)": "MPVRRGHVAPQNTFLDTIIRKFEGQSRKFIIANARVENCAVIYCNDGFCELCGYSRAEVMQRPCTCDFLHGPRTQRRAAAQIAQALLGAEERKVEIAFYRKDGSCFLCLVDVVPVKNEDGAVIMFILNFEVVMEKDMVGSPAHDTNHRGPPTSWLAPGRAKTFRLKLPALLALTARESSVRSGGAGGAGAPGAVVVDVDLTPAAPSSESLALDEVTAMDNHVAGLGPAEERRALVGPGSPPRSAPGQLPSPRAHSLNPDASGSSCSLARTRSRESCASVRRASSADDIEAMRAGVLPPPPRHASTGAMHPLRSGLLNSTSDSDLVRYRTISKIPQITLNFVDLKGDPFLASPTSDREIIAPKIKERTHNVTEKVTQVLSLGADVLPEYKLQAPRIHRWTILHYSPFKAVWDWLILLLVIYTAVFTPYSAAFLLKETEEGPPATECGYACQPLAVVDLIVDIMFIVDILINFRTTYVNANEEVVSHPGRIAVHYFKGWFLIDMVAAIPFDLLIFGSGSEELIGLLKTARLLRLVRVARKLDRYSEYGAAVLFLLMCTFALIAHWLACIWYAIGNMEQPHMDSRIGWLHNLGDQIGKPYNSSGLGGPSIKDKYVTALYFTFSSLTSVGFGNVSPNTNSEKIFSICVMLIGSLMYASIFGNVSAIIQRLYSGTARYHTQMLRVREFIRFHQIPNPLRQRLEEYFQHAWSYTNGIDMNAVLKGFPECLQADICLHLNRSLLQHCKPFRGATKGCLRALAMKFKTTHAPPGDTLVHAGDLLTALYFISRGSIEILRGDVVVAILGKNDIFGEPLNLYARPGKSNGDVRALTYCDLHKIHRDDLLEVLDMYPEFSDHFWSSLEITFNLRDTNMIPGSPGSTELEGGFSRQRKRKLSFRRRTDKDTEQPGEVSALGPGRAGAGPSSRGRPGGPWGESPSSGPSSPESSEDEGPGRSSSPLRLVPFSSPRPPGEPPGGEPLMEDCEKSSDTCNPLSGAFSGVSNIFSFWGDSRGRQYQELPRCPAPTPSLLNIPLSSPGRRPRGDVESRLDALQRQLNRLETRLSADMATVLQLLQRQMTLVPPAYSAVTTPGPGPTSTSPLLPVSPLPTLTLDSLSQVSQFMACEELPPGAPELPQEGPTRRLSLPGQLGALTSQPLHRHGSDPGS", "test": "primary screen, population patch clamp on CHO cells stably expressing hERG", "units": {"hERG current change (%, negative = inhibition) at 10uM": "%"}, "values": [
      {"smiles": "COCCCNS(=O)(=O)c1ccc(C)cc1", "hERG current change (%, negative = inhibition) at 10uM": 4.42},
      {"smiles": "Cc1ccc(CNC(=O)C2CCC(=O)N(CCCN3CCOCC3)C2)cc1", "note": "(stereo not drawn)", "hERG current change (%, negative = inhibition) at 10uM": 19},
      {"smiles": "COc1ccc(C2Nc3cccc4cccc(c34)N2)cc1", "hERG current change (%, negative = inhibition) at 10uM": 7.31},
      {"smiles": "O=C(Cn1c(=O)n(-c2ccccc2)c(=O)c2sccc21)N1CCCC1", "hERG current change (%, negative = inhibition) at 10uM": 3.63},
      {"smiles": "COc1cccc(-n2c(SCC(=O)NC3CCS(=O)(=O)C3)nc3ccccc3c2=O)c1", "note": "(stereo not drawn)", "hERG current change (%, negative = inhibition) at 10uM": -5.65},
      {"smiles": "CC1Cc2cc(/C(O)=C3/C(=O)C(=O)N(CCCn4ccnc4)C3c3ccc(F)cc3)ccc2O1", "note": "(stereo not drawn)", "hERG current change (%, negative = inhibition) at 10uM": 6.51},
      {"smiles": "C/C(=N/NS(=O)(=O)c1ccc(C)cc1)c1cccc(NC(=O)c2cccc(Cl)c2)c1", "hERG current change (%, negative = inhibition) at 10uM": -0.128},
      {"smiles": "CN(C#N)c1nccc(-c2cccs2)n1", "hERG current change (%, negative = inhibition) at 10uM": -13},
      {"smiles": "CCOc1ccc(C(=O)N2CCN(c3ccccn3)CC2)cc1OCC", "hERG current change (%, negative = inhibition) at 10uM": -0.22},
      {"smiles": "COc1ccccc1CC(=O)Nc1ccc(S(=O)(=O)N2CCCC2)cc1", "hERG current change (%, negative = inhibition) at 10uM": -5.62},
      {"smiles": "CC(=O)Nc1cccc(Oc2ncccc2[N+](=O)[O-])c1", "hERG current change (%, negative = inhibition) at 10uM": 10.7},
      {"smiles": "COC(=O)c1c(NC(=O)CSc2nnc(-c3ccco3)n2C)sc(C)c1C", "hERG current change (%, negative = inhibition) at 10uM": -23.5},
      {"smiles": "COCCn1c(SCC(=O)N2CCCC2)nnc1-c1ccco1", "hERG current change (%, negative = inhibition) at 10uM": 18.6},
      {"smiles": "Cc1nn(C)c(C)c1C(C)NC(=O)c1cc(COc2cncc(Cl)c2)on1", "note": "(stereo not drawn)", "hERG current change (%, negative = inhibition) at 10uM": 23.4},
      {"smiles": "O=C(COC(=O)Cc1ccc(Br)cc1)Nc1c(F)c(F)c(F)c(F)c1F", "hERG current change (%, negative = inhibition) at 10uM": 13.4},
      {"smiles": "O=C(Nc1cc2c3c(c1)CC(=O)N3CCC2)c1c(F)cccc1F", "hERG current change (%, negative = inhibition) at 10uM": 6.97},
      {"smiles": "CCc1nnc(NC(=O)CSc2nnc3c(C)cc4c(C)ccc(C)c4n23)s1", "hERG current change (%, negative = inhibition) at 10uM": 10.3},
      {"smiles": "COC(=O)c1ccc(-n2nc(C(F)(F)F)c3c2-c2ccoc2CC3)cc1", "hERG current change (%, negative = inhibition) at 10uM": 19.9},
      {"smiles": "COc1ccc(NC(=O)CCNS(=O)(=O)c2ccc3[nH]c(=O)oc3c2)cc1Cl", "hERG current change (%, negative = inhibition) at 10uM": -47.6},
      {"smiles": "Cc1c(C(=O)Nc2nccs2)oc2c(Cl)cccc12", "hERG current change (%, negative = inhibition) at 10uM": 9.58},
      {"smiles": "CCN(CC)CCN(Cc1cc2cc(C)cc(C)c2[nH]c1=O)C(=S)NCc1ccco1", "hERG current change (%, negative = inhibition) at 10uM": -52.5},
      {"smiles": "COC(=O)c1ccc(CSc2nc(N)cc(N)n2)cc1", "hERG current change (%, negative = inhibition) at 10uM": -9.79},
      {"smiles": "O=C(Nc1ccc(F)cc1)C(=O)C1C(=O)Nc2ccccc21", "note": "(stereo not drawn)", "hERG current change (%, negative = inhibition) at 10uM": -14.9},
      {"smiles": "O=C(CCc1nnc(COc2ccccc2)o1)NCc1ccccc1C(F)(F)F", "hERG current change (%, negative = inhibition) at 10uM": 4.39},
      {"smiles": "CC1CC(C)CN(C(=O)CSc2nnc(-c3ccc(Cl)s3)o2)C1", "note": "(stereo not drawn)", "hERG current change (%, negative = inhibition) at 10uM": -5.96},
      {"smiles": "CCCc1nn2c(N)c(/C=C3\\C=Nc4ccccc43)c(=O)nc2s1", "hERG current change (%, negative = inhibition) at 10uM": 15.8},
      {"smiles": "O=C(N/N=C1\\CCc2ccccc21)c1ccccc1Cl", "hERG current change (%, negative = inhibition) at 10uM": 19.2},
      {"smiles": "CCCN(CC(=O)Nc1ccccc1C)C(=O)C1CCN(S(=O)(=O)c2ccccc2C(F)(F)F)CC1", "hERG current change (%, negative = inhibition) at 10uM": -21.5},
      {"smiles": "CCOc1ccccc1NC(=S)N(CCN(C)C)C(C)c1ccncc1", "note": "(stereo not drawn)", "hERG current change (%, negative = inhibition) at 10uM": -15.3},
      {"smiles": "N#Cc1ccc(CN2CCN(C(=O)c3ccc(S(=O)(=O)N4CCCCCC4)cc3)CC2)cc1", "hERG current change (%, negative = inhibition) at 10uM": -40.9},
      {"smiles": "Cc1ccc(SCCOCCN2CCc3ccccc3C2)cc1", "hERG current change (%, negative = inhibition) at 10uM": -60.5},
      {"smiles": "O=C(c1ccccc1OCc1ccccc1Br)N1CCN(c2ncccn2)CC1", "hERG current change (%, negative = inhibition) at 10uM": -37.2},
      {"smiles": "Cc1cc(Br)cc(C=Nc2ccc(N3CCOCC3)cc2)c1O", "hERG current change (%, negative = inhibition) at 10uM": 13.6},
      {"smiles": "Cc1cc(Br)ccc1NC(=O)CNC(=O)CNc1cccc([N+](=O)[O-])c1", "hERG current change (%, negative = inhibition) at 10uM": -13.6},
      {"smiles": "COc1ccccc1N1CCN(C(=O)CN(C)S(=O)(=O)c2ccc3c(c2)c(=O)n(C)c(=O)n3C)CC1", "hERG current change (%, negative = inhibition) at 10uM": 15.2},
      {"smiles": "CCOc1ccc(-n2cc(C(=O)NCCOC)c3cc(OC)c(OC)cc3c2=O)cc1", "hERG current change (%, negative = inhibition) at 10uM": 12.6},
      {"smiles": "O=C(CCC1CCCCC1)Nc1ccc(C(=O)c2ccncc2)cc1", "hERG current change (%, negative = inhibition) at 10uM": -12.2},
      {"smiles": "COC(=O)[C@@H](NC(=O)NC1CCCc2ccccc21)C(C)C", "note": "(stereo partly drawn)", "hERG current change (%, negative = inhibition) at 10uM": 9.47},
      {"smiles": "Cc1onc(-c2ccccc2Cl)c1C(=O)Nc1ccccc1C(N)=O", "hERG current change (%, negative = inhibition) at 10uM": -1.89},
      {"smiles": "COc1ccccc1Cn1c(SCC#N)nc2cc(C(=O)N3CCC4(CC3)OCCO4)ccc2c1=O", "hERG current change (%, negative = inhibition) at 10uM": -0.426},
      {"smiles": "Cc1nn(C)c(C)c1C1C(C#N)=C(N)OC2=C1C(=O)CC(C)(C)C2", "note": "(stereo not drawn)", "hERG current change (%, negative = inhibition) at 10uM": -12.3},
      {"smiles": "O=C(CCc1nc2ccccc2s1)NCc1ccccc1F", "hERG current change (%, negative = inhibition) at 10uM": 23.7},
      {"smiles": "NC(=O)CSc1nc2scc(-c3ccco3)c2c(=O)n1-c1ccccc1", "hERG current change (%, negative = inhibition) at 10uM": -4.9},
      {"smiles": "CCOc1ccc(NC(=S)NCc2ccc3[nH]c(C)cc3c2)cc1", "hERG current change (%, negative = inhibition) at 10uM": 23.5},
      {"smiles": "Nn1c(SCC(=O)NCc2ccccc2)nncc1=O", "hERG current change (%, negative = inhibition) at 10uM": 6.47}
    ]}
  ]
}
